This is one part of the list. These are noisy estimates, calculated here from bound and input reads.
target: T1, Pho4 (S. cerevisiae) (UniProt P07270); experiment: relative binding free energy (BET-seq); higher = weaker binding; details: reference: library average
T1 sequence: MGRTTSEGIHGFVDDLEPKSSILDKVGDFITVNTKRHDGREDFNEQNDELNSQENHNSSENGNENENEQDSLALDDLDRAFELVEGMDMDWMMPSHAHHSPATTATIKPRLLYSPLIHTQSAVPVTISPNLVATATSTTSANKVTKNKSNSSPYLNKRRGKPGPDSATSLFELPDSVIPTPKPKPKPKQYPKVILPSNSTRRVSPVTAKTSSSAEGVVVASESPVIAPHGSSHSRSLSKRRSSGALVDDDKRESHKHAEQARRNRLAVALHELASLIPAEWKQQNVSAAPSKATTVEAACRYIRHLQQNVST

Sequence | relative binding free energy [kcal/mol]
GCGGCCACGTGTGGGG | 0.06
GGCGGCACGTGTCGAG | 0.03
GTGAACACGTGCGTAG | 0.08
TTGTACACGTGTGCGT | 0.11
ACTGTCACGTGGTAGT | -0.08
AAGAACACGTGGGTCT | 0.13
CTTATCACGTGTATTG | 0.14
GTTTCCACGTGGGTGT | 0
AGGAACACGTGGATTG | 0.09
GCTTGCACGTGTTATT | 0.1
TTGATCACGTGCGGCA | 0.18
GGGGTCACGTGGGACA | 0
GAGCTCACGTGAGGTG | 0.36
GTACTCACGTGTTGTA | 0.31
TGAAGCACGTGGAATT | 0.17
AGAGACACGTGTAAGT | 0.23
GTTGGCACGTGGTGGC | -0.15
TCTTACACGTGTGGGA | 0.01
TGTTCCACGTGGGATG | -0.09
CAGCGCACGTGGGGTT | -0.26
ATGGGCACGTGCCGTT | -0.27
AAGGGCACGTGTAAAG | -0.03
GGGGCCACGTGGTCTT | 0
TTGATCACGTGTCGTA | 0.11
AGGGGCACGTGACTTT | 0.02

Sequence | relative binding free energy [kcal/mol]
AGGTTCACGTGTTGCG | 0.25
AGGTTCACGTGCGTTG | 0.28
TAGTGCACGTGTGGTG | 0.08
GTTAACACGTGTAGAA | 0.14
AGGTACACGTGCTAGG | -0.06
TATCGCACGTGGGGAC | -0.02
TTATTCACGTGGTTCG | 0.22
TTAGGCACGTGAATAT | 0.03
AGGCTCACGTGGTTTT | 0.2
TGTAACACGTGGCTGG | -0.03
AGGGACACGTGAAGAG | 0.2
AGAATCACGTGCTGTT | 0.13
GGTGACACGTGCTGGG | -0.1
GCATTCACGTGGGGGT | 0.18
GTAGGCACGTGGTAAA | 0.05
AGATTCACGTGGTGTC | 0.11
AATTACACGTGATTGG | 0.08
AGCTTCACGTGGATGT | 0.25
TCATGCACGTGCTTGT | -0.04
AGCGCCACGTGGGTGG | -0.26
CGTGTCACGTGGCAGG | -0.08
GTTCGCACGTGTTTGC | 0.05
AGCGGCACGTGTGGAA | -0.07
TGTAACACGTGGTTGT | -0.12
GTGGCCACGTGTGAGA | 0.04

Sequence | relative binding free energy [kcal/mol]
GGGTTCACGTGTTCCG | 0.36
GGCAGCACGTGTAGGG | -0.01
GTAGTCACGTGGGCTT | -0.05
CTGGTCACGTGAAAGT | 0.4
TTGAACACGTGGGAGG | -0.01
AGGTGCACGTGATTTA | 0.02
TTGGACACGTGGGGCT | -0.21
TGATTCACGTGGTATT | 0.2
AGTTACACGTGGTACG | 0.04
GGTGGCACGTGGACGG | -0.01
TTAGACACGTGTAGCT | 0
ATCGGCACGTGGCTGG | -0.22
AAGTTCACGTGGTACT | 0.34
ATATTCACGTGGCTTA | 0.23
TCCATCACGTGTGGTT | 0.24
TGGTGCACGTGGTGCC | -0.07
TTGAGCACGTGGGCAG | -0.26
TGTAGCACGTGAGTAT | 0.19
TGAAACACGTGGTTAG | 0.01
TCGTACACGTGTGTGG | 0.08
TCTAGCACGTGTAGGT | 0
AGTAGCACGTGTATTA | 0
TGGTGCACGTGGCGTT | -0.21
